Data on 27 molecules can be found in patent US7160888B2, “[1,8]naphthyridin-2-ones and related compounds for the treatment of schizophrenia” (Warner Lambert Company LLC, priority 2003, dated 2007).

For one test, the target named is dopamine D2 receptor (Homo sapiens, UniProt P14416). Briefly: biochemical. The conditions noted are these: D2 Ki (nM), Table 1; 0.4 nM [3H]spiperone, CHO-hD2L membranes.
UniProt P14416, sequence (P14416 whole entry): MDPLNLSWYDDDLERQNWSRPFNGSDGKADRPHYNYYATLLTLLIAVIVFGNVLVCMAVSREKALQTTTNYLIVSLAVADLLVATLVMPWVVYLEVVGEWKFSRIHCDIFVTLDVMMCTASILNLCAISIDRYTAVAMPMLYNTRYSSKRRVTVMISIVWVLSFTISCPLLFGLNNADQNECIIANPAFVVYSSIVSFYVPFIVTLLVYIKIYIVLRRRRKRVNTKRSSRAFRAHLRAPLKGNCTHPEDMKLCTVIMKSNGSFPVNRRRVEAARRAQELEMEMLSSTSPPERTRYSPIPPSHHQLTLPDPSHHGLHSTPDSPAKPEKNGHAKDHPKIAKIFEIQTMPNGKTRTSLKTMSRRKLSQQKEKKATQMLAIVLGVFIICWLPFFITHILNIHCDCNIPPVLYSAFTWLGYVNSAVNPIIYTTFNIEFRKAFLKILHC
For `CC(=O)c1c(Cl)cccc1N1CCN(CCCCOc2ccc3ccc(=O)[nH]c3n2)CC1` [Example B3, 7-{4-[4-(2-Acetyl-3-chloro-phenyl)-piperazin-1-yl]-butoxy}-1H-[1,8]naphthyridin-2-one], the Ki came to 3.9 nM.

As for `CCc1c(Cl)cccc1N1CCN(CCCCOc2ccc3ccc(=O)[nH]c3n2)CC1` [Example B4, 7-{4-[4-(3-Chloro-2-ethyl-phenyl)-piperazin-1-yl]-butoxy}-1H-[1,8]naphthyridin-2-one], the affinity, expressed as Ki, was 1.4 nM.

Consider `CC(=O)c1c(F)cccc1N1CCN(CCCCOc2ccc3ccc(=O)[nH]c3n2)CC1` [Example B5, 7-{4-[4-(2-Acetyl-3-fluoro-phenyl)-piperazin-1-yl]-butoxy}-1H-[1,8]naphthyridin-2-one], for which the Ki came out at 3 nM.

In turn, `CC(=O)c1cccc(N2CCN(CCCCOc3ccc4ccc(=O)[nH]c4n3)CC2)c1Cl` [Example B6, 7-{4-[4-(3-Acetyl-2-chloro-phenyl)-piperazin-1-yl]-butoxy}-1H-[1,8]naphthyridin-2-one] came in with a Ki of 1 nM.

As for `Cc1cc(N2CCN(CCCCOc3ccc4ccc(=O)[nH]c4n3)CC2)c(Cl)cc1F` [Example B7, 7-{4-[4-(2-Chloro-4-fluoro-5-methyl-phenyl)-piperazin-1-yl]-butoxy}-1H-[1,8]naphthyridin-2-one], the Ki amounted to 5 nM.

`CC(C)Oc1ccc(Cl)cc1N1CCN(CCCCOc2ccc3ccc(=O)[nH]c3n2)CC1` [Example B9, 7-{4-[4-(5-Chloro-2-isopropoxy-phenyl)-piperazin-1-yl]-butoxy}-1H-[1,8]naphthyridin-2-one] showed a Ki of 1.7 nM.

In turn, `CC(C)Oc1ccccc1N1CCN(CCCCOc2ccc3ccc(=O)[nH]c3n2)CC1` [Example B10, 7-{4-[4-(2-Isopropoxy-phenyl)-piperazin-1-yl]-butoxy}-1H-[1,8]naphthyridin-2-one] showed a Ki of 1.2 nM.

On to `CC(C)COc1ccccc1N1CCN(CCCCOc2ccc3ccc(=O)[nH]c3n2)CC1` [Example B11, 7-{4-[4-(2-Isobutoxy-phenyl)-piperazin-1-yl]-butoxy}-1H-[1,8]naphthyridin-2-one], for which the Ki was determined as 1.4 nM.

Molecule `O=c1ccc2ccc(OCCCCN3CCN(c4ccc(F)cc4)CC3)nc2[nH]1` [Example B13, 7-{4-[4-(4-Fluoro-phenyl)-piperazin-1-yl]-butoxy}-1H-[1,8]naphthyridin-2-one] gave a Ki of 11.2 nM.

Consider `O=c1ccc2ccc(OCCCCN3CCN(c4ccc(F)c(Cl)c4)CC3)nc2[nH]1` [Example B14, 7-{4-[4-(3-Chloro-4-fluoro-phenyl)-piperazin-1-yl]-butoxy}-1H-[1,8]naphthyridin-2-one], for which affinity was put at a Ki of 6.5 nM.

As for `O=c1ccc2ccc(OCCCCN3CCN(c4cccc(C(F)(F)F)c4)CC3)nc2[nH]1` [Example B15, 7-{4-[4-(3-Trifluoromethyl-phenyl)-piperazin-1-yl]-butoxy}-1H-[1,8]naphthyridin-2-one], the inhibition constant (Ki) is 2.5 nM.

On to `O=c1ccc2ccc(OCCCCN3CCN(c4ccccc4C(F)(F)F)CC3)nc2[nH]1` [Example B16, 7-{4-[4-(2-Trifluoromethyl-phenyl)-piperazin-1-yl]-butoxy}-1H-[1,8]naphthyridin-2-one], for which the Ki was 2.5 nM.

The same test, now with this note: D2 Ki (nM), Table 2; 0.4 nM [3H]spiperone, CHO-hD2L membranes.
`CC1(C)C=Cc2cccc(N3CCN(CCCCOc4ccc5ccc(=O)[nH]c5n4)CC3)c2O1` [Example B2′, 7-{4-[4-(2,2-Dimethyl-2H-chromen-8-yl)-piperazin-1-yl]-butoxy}-1H-[1,8]naphthyridin-2-one] displayed a Ki of 1 nM.

Take `CC1(C)CCc2cccc(N3CCN(CCCCOc4ccc5ccc(=O)[nH]c5n4)CC3)c2O1` [Example B3′, 7-{4-[4-(2,2-Dimethyl-chroman-8-yl)-piperazin-1-yl]-butoxy}-1H-[1,8]naphthyridin-2-one]: the affinity corresponds to a Ki of 2 nM. This Ki lies about 2-fold higher than the previous one.

The molecule `CC1C=Cc2cccc(N3CCN(CCCCOc4ccc5ccc(=O)[nH]c5n4)CC3)c2O1` (stereo not drawn) [Example B4′, 7-{4-[4-(2-Methyl-2H-chromen-8-yl)-piperazin-1-yl]-butoxy}-1H-[1,8]naphthyridin-2-one] showed a Ki of 1 nM.

In turn, `CC1CCc2cccc(N3CCN(CCCCOc4ccc5ccc(=O)[nH]c5n4)CC3)c2O1` (stereo not drawn) [Example B5′, 7-{4-[4-(2-Methyl-chroman-8-yl)-piperazin-1-yl]-butoxy}-1H-[1,8]naphthyridin-2-one] came in with a Ki of 0.3 nM.

In turn, `O=c1ccc2ccc(OCCCCN3CCN(c4cccc5c4OC4(C=C5)CCCC4)CC3)nc2[nH]1` [Example B6′, 7-{4-[4-(Spiro[chromene-2,1′-cyclopentan]-8-yl)-piperazin-1-yl]-butoxy}-1H-[1,8]naphthyridin-2-one] came in with a Ki of 1 nM.

In the case of `O=c1ccc2ccc(OCCCCN3CCN(c4cccc5c4OC4(CCCC4)CC5)CC3)nc2[nH]1` [Example B7′, 7-{4-[4-(3,4-Dihydrospiro[chromene-2,1′-cyclopentan]-8-yl)-piperazin-1-yl]-butoxy}-1H-[1,8]naphthyridin-2-one], the inhibitory constant (Ki) is 1 nM. This lies in the single-digit nanomolar range.

`O=c1ccc2ccc(OCCCCN3CCN(c4cccc5c4OCC5)CC3)nc2[nH]1` [Example B8′, 7-{4-[4-(2,3-Dihydro-benzofuran-7-yl)-piperazin-1-yl]-butoxy}-1H-[1,8]naphthyridin-2-one] returned a Ki of 1 nM. In other words, the single-digit nanomolar range.

The molecule `CC1(C)Cc2cccc(N3CCN(CCCCOc4ccc5ccc(=O)[nH]c5n4)CC3)c2O1` [Example B9′, 7-{4-[4-(2,2-Dimethyl-2,3-dihydro-benzofuran-7-yl)-piperazin-1-yl]-butoxy}-1H-[1,8]naphthyridin-2-one] showed a Ki of 1 nM.

`O=c1ccc2ccc(OCCCCN3CCN(c4cccc5c4CCCO5)CC3)nc2[nH]1` [Example B10′, 7-[4-(4-Chroman-5-yl-piperazin-1-yl)-butoxy]-1H-[1,8]naphthyridin-2-one] returned a Ki of 1 nM.

The molecule `O=c1ccc2ccc(OCCCCN3CCN(c4cccc5c4CCO5)CC3)nc2[nH]1` [Example B11′, 7-{4-[4-(2,3-Dihydro-benzofuran-4-yl)-piperazin-1-yl]-butoxy}-1H-[1,8]naphthyridin-2-one] had a Ki of 1 nM.

Turning to `O=c1ccc2ccc(OCCCCN3CCN(c4cccc5c4OCCO5)CC3)nc2[nH]1` [Example B12′, 7-{4-[4-(2,3-Dihydro-benzo[1,4]dioxin-5-yl)-piperazin-1-yl]-butoxy}-1H-[1,8]naphthyridin-2-one], the Ki was 2 nM.

On to `O=c1ccc2ccc(OCCCCN3CCN(c4cccc5c4OC(F)(F)O5)CC3)nc2[nH]1` [Example B13′, 7-{4-[4-(2,2-Difluoro-benzo[1,3]dioxol-4-yl)-piperazin-1-yl]-butoxy}-1H-[1,8]naphthyridin-2-one], for which the Ki was found to be 2 nM. That is a single-digit nanomolar value.

As to `O=c1ccc2ccc(OCCCCN3CCN(c4cccc5c4COC5)CC3)nc2[nH]1` [Example B14′, 7-{4-[4-(1,3-Dihydro-isobenzofuran-4-yl)-piperazin-1-yl]-butoxy}-1H-[1,8]naphthyridin-2-one], the Ki is 2 nM.

Regarding `O=C1CCOc2c1cccc2N1CCN(CCCCOc2ccc3ccc(=O)[nH]c3n2)CC1` [Example B15′, 7-{4-[4-(4-Oxo-chroman-8-yl)-piperazin-1-yl]-butoxy}-1H-[1,8]naphthyridin-2-one], the affinity, expressed as Ki, was 9.4 nM.

`CC1(C)COc2c(cccc2N2CCN(CCCCOc3ccc4ccc(=O)[nH]c4n3)CC2)C1=O` [Example B16′, 7-{4-[4-(3,3-Dimethyl-4-oxo-chroman-8-yl)-piperazin-1-yl]-butoxy}-1H-[1,8]naphthyridin-2-one] came in with a Ki of 1.1 nM. This Ki lies about 8.5-fold lower than the previous one.
